# Assay results from the supplement of paper PMC8728848.
# The other results are listed elsewhere or left out.
# B1: MGL6A (Homo sapiens) (protein)
# chain: MTRTYENFQYLENKVKVQGFKNGPLPLQSLLQRLCSGPCHLLLSLGLGLLLLVIICVVGFQNSKFQRDLVTLRTDFSNFTSNTVAEIQALTSQGSSLEETIASLKAEVEGFKQERQAVHSEMLLRVQQLVQDLKKLTCQVATLNNNGEEASTEGTCCPVNWVEHQDSCYWFSHSGMSWAEAEKYCQLKNAHLVVINSREEQNFVQKYLGSAYTWMGLSDPEGAWKWVDGTDYATGFQNWKPGQPDDWQGHGLGGGEDCAHFHPDGRWNDDVCQRPYHWVCEAGLGQTSQESH
# What was measured:
# Experiment in all cases: glycan array binding signal (z-score within array); higher = stronger binding
# Settings in all cases: glycan notation: IUPAC condensed, linker removed
# [1] = biological target: Gal(b1-4)GlcNAc(b1-3)Gal(b1-4)GlcNAc(b1-3)Gal(b1-4)GlcNAc(b1-3)Gal(b1-4)GlcNAc(b1-3)Gal(b1-4)GlcNAc(b1-2)[Gal(b1-4)GlcNAc(b1-3)Gal(b1-4)GlcNAc(b1-3)Gal(b1-4)GlcNAc(b1-3)Gal(b1-4)GlcNAc(b1-3)Gal(b1-4)GlcNAc(b1-6)]Man(a1-6)[Gal(b1-4)GlcNAc(b1-3)Gal(b1-4)GlcNAc(b1-3)Gal(b1-4)GlcNAc(b1-3)Gal(b1-4)GlcNAc(b1-3)Gal(b1-4)GlcNAc(b1-2)Man(a1-3)]Man(b1-4)GlcNAc(b1-4)[Fuc(a1-6)]GlcNAc
# Method in brief: (§1)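 Arrays were curated from the Consortium for Functional Glycomics database, 3228 in total, and kept only where the protein sequence was available. Binding is expressed as a within-array Z-score. This score was averaged across arrays of the same protein sequence at different concentrations or buffers and across linkers, and negative values can be read as non-binding.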
# [2] = biological target: Gal(b1-4)GlcNAc(b1-3)Gal(b1-4)GlcNAc(b1-3)Gal(b1-4)GlcNAc(b1-3)Gal(b1-4)GlcNAc(b1-3)Gal(b1-4)GlcNAc(b1-3)Gal(b1-4)GlcNAc(b1-2)Man(a1-3)[Gal(b1-4)GlcNAc(b1-3)Gal(b1-4)GlcNAc(b1-3)Gal(b1-4)GlcNAc(b1-3)Gal(b1-4)GlcNAc(b1-3)Gal(b1-4)GlcNAc(b1-3)Gal(b1-4)GlcNAc(b1-2)Man(a1-6)]Man(b1-4)GlcNAc(b1-4)GlcNAc
# Method in brief: as §1
# [3] = biological target: Gal(b1-4)GlcNAc(b1-3)Gal(b1-4)GlcNAc(b1-3)GalNAc
# Method in brief: as §1
# [4] = biological target: Gal(b1-4)GlcNAc(b1-3)Gal(b1-4)GlcNAc(b1-3)[Gal(b1-4)GlcNAc(b1-3)Gal(b1-4)GlcNAc(b1-6)]GalNAc
# Method in brief: as §1
# [5] = biological target: Gal(b1-4)GlcNAc(b1-3)Gal(b1-4)GlcNAc(b1-6)[Gal(b1-3)]GalNAc
# Method in brief: as §1
# [6] = biological target: Gal(b1-4)GlcNAc(b1-3)Gal(b1-4)[Fuc(a1-3)]GlcNAc(b1-3)Gal(b1-4)[Fuc(a1-3)]GlcNAc
# Method in brief: as §1
# [7] = biological target: Gal(b1-4)GlcNAc(b1-3)GalNAc
# Method in brief: as §1
# [8] = biological target: Gal(b1-4)GlcNAc(b1-3)[Fuc(a1-3)GlcNAc(b1-6)]Gal(b1-4)Glc
# Method in brief: as §1
# [9] = biological target: Gal(b1-4)GlcNAc(b1-3)[Gal(b1-4)GlcNAc(b1-6)]Gal(b1-4)GlcNAc
# Method in brief: as §1
# [10] = biological target: Gal(b1-4)GlcNAc(b1-3)[GlcNAc(b1-6)]Gal(b1-4)GlcNAc
# Method in brief: as §1
# [11] = biological target: Gal(b1-4)GlcNAc(b1-6)Gal(b1-4)GlcNAc
# Method in brief: as §1
# [12] = biological target: Gal(b1-4)GlcNAc(b1-6)Gal(b1-4)GlcNAc(b1-6)GalNAc
# Method in brief: as §1
# [13] = biological target: Gal(b1-4)GlcNAc(b1-6)GalNAc
# Method in brief: as §1
# [14] = biological target: Gal(b1-4)GlcNAc(b1-6)[Gal(b1-3)]GalNAc
# Method in brief: as §1
# [15] = biological target: Gal(b1-4)GlcNAc(b1-6)[Gal(b1-4)GlcNAc(b1-3)]GalNAc
# Method in brief: as §1
# [16] = biological target: Gal(b1-4)GlcNAc6P
# Method in brief: as §1
# [17] = biological target: Gal(b1-6)Gal
# Method in brief: as §1
# [18] = biological target: Gal3S(b1-3)GalNAc
# Method in brief: as §1
# [19] = biological target: Gal3S(b1-3)GlcNAc
# Method in brief: as §1
binder,measurement,setting,value
B1,glycan array binding signal (z-score),[1],-0.193
same,glycan array binding signal (z-score),[2],-0.241
same,glycan array binding signal (z-score),[3],-0.303
same,glycan array binding signal (z-score),[4],-0.263
same,glycan array binding signal (z-score),[5],-0.265
same,glycan array binding signal (z-score),[6],-0.26
same,glycan array binding signal (z-score),[7],-0.309
same,glycan array binding signal (z-score),[8],-0.257
same,glycan array binding signal (z-score),[9],-0.108
same,glycan array binding signal (z-score),[10],-0.327
same,glycan array binding signal (z-score),[11],-0.304
same,glycan array binding signal (z-score),[12],-0.256
same,glycan array binding signal (z-score),[13],4.67
same,glycan array binding signal (z-score),[14],0.17
same,glycan array binding signal (z-score),[15],-0.264
same,glycan array binding signal (z-score),[16],-0.264
same,glycan array binding signal (z-score),[17],-0.283
same,glycan array binding signal (z-score),[18],-0.273
same,glycan array binding signal (z-score),[19],-0.648
